Assay results reported in paper PMC5451543.
Numbering of substitutions follows the chain as printed. Results are given in words; binding and its absence hold for the method and conditions named. Binding seen in cells or lysates may run through a third protein. Some binding calls cover weakened binding; strength is not graded here. Where a sequence is shown, tags or fusion partners need not be part of it.

Amino acid sequences for entries named in this document (tags omitted). A change or cut given only in a name is not applied to a line headed by its entry. Residues count along the entry.
UniProt Q13200: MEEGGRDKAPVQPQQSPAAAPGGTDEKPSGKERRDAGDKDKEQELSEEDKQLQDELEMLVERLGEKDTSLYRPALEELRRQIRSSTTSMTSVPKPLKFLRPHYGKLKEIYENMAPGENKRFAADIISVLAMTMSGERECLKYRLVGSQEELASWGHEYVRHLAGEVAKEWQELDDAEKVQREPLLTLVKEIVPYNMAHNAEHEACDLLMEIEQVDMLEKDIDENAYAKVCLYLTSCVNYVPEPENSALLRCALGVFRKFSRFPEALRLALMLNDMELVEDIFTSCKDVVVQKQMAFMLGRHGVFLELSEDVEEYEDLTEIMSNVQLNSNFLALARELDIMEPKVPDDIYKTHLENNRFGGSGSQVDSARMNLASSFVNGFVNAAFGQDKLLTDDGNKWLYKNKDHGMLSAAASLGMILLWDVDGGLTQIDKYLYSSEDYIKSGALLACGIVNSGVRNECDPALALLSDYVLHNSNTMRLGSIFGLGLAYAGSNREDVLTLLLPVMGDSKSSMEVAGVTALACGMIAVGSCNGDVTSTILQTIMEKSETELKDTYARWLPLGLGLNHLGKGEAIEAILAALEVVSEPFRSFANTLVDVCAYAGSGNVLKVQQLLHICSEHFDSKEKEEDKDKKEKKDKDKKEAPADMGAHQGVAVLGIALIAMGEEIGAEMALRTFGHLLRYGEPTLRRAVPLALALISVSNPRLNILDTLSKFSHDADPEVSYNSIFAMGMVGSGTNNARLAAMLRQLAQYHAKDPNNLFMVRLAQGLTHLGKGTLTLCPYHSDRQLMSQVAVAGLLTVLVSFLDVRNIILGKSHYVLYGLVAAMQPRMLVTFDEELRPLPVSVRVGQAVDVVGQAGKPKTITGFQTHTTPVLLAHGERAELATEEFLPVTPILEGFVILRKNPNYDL
FLAG-Rpn1 (aa 1–797): residues 1-797 of Q13200
FLAG-Rpn1 (aa 1–651): residues 1-651 of Q13200
FLAG-Rpn1 (aa 1–594): residues 1-594 of Q13200
FLAG-Rpn1 (aa 408–908): residues 408-908 of Q13200
FLAG-Rpn1 (aa 408–797): residues 408-797 of Q13200
FLAG-Rpn1 (aa 595–908): residues 595-908 of Q13200
FLAG-Rpn1 (aa 652–908): residues 652-908 of Q13200
UniProt O00487: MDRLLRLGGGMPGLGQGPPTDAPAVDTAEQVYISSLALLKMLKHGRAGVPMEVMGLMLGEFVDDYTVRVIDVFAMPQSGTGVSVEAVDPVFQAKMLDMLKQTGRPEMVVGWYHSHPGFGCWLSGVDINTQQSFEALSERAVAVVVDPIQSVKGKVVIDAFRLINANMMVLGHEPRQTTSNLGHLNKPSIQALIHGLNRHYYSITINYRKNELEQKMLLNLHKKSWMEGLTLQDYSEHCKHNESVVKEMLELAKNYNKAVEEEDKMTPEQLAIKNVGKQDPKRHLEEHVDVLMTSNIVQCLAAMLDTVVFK

Legend:
FLAG-Rpn1 (human) = FLAG-Rpn1 (human) (UniProt Q13200); test: co-IP; HEK293T co-transfected with tagged proteins; FLAG lysis buffer (300 mM NaCl, 25 mM Tris–HCl pH 7.5, 2 mM EDTA, 1% Triton X-100); IP with anti-FLAG antibody, western blot; some panels with UBLCP1 knockout, siRpn1 or HA-Rpn1 overexpression
[1] = target: FLAG-Rpn1 (aa 1–797) (human) (UniProt Q13200); test: as above
[2] = target: FLAG-Rpn1 (aa 408–908) (human) (UniProt Q13200); test: as above
[3] = target: FLAG-Rpn1 (aa 1–651) (human) (UniProt Q13200); test: as above
FLAG-PAAF1 (human) = FLAG-PAAF1 (human) (UniProt Q9BRP4); test: as above
[4] = target: FLAG-Rpn1 (aa 595–908) (human) (UniProt Q13200); test: as above
[5] = target: FLAG-Rpn1 (aa 652–908) (human) (UniProt Q13200); test: as above
[6] = target: FLAG-Rpn1 (aa 408–797) (human) (UniProt Q13200); test: as above
[7] = target: FLAG-Rpn1 (aa 1–594) (human) (UniProt Q13200); test: as above
HTBH-tagged Rpn11 = HTBH-tagged Rpn11 (UniProt O00487); test: pull-down; streptavidin–agarose pull-down of HTBH-tagged Rpn11 from stable HEK293T cells co-transfected with FLAG-tagged subunits or chaperones and HA-UBLCP1 or HA-DDAA; western blot
[8] = target: HTBH-tagged Rpn11, O00487; test: as above; details: remark: other sources report otherwise

B1: HA-UBLCP1 (protein, UniProt Q8WVY7 1-318)
chain: MALPIIVKWGGQEYSVTTLSEDDTVLDLKQFLKTLTGVLPERQKLLGLKVKGKPAENDVKLGALKLKPNTKIMMMGTREESLEDVLGPPPDNDDVVNDFDIEDEVVEVENREENLLKISRRVKEYKVEILNPPREGKKLLVLDVDYTLFDHRSCAETGVELMRPYLHEFLTSAYEDYDIVIWSATNMKWIEAKMKELGVSTNANYKITFMLDSAAMITVHTPRRGLIDVKPLGVIWGKFSEFYSKKNTIMFDDIGRNFLMNPQNGLKIRPFMKAHLNRDKDKELLKLTQYLKEIAKLDDFLDLNHKYWERYLSKKQGQ
With B1 the binding (FLAG-Rpn1 (human)) was “binds”, the binding [1] was “no binding” and the binding [2] was “binds”. The binding [3] was “no binding”, the binding (FLAG-PAAF1 (human)) was “binds” and the binding [4] was “binds”. For the same binder, the binding [5] was “binds”, the binding [6] was “no binding” and the binding [7] was “no binding”.

B2: HA-UBLCP1 DDAA (protein, UniProt Q8WVY7 1-318)
chain: B1 chain with D143A, D145A
With B2 the binding (FLAG-Rpn1 (human)) was “binds” and the binding (FLAG-PAAF1 (human)) was “binds”.

B3: FLAG-p27 (protein, UniProt O00233 1-223)
chain: MSDEEARQSGGSSQAGVVTVSDVQELMRRKEEIEAQIKANYDVLESQKGIGMNEPLVDCEGYPRSDVDLYQVRTARHNIICLQNDHKAVMKQVEEALHQLHARDKEKQARDMAEAHKEAMSRKLGQSESQGPPRAFAKVNSISPGSPASIAGLQVDDEIVEFGSVNTQNFQSLHNIGSVVQHSEGKPLNVTVIRRGEKHQLRLVPTRWAGKGLLGCNIIPLQR
With B3 the binding (HTBH-tagged Rpn11) was “binds”.

B4: FLAG-PAAF1, Q9BRP4 1-392 (protein)
chain: MAAPLRIQSDWAQALRKDEGEAWLSCHPPGKPSLYGSLTCQGIGLDGIPEVTASEGFTVNEINKKSIHISCPKENASSKFLAPYTTFSRIHTKSITCLDISSRGGLGVSSSTDGTMKIWQASNGELRRVLEGHVFDVNCCRFFPSGLVVLSGGMDAQLKIWSAEDASCVVTFKGHKGGILDTAIVDRGRNVVSASRDGTARLWDCGRSACLGVLADCGSSINGVAVGAADNSINLGSPEQMPSEREVGTEAKMLLLAREDKKLQCLGLQSRQLVFLFIGSDAFNCCTFLSGFLLLAGTQDGNIYQLDVRSPRAPVQVIHRSGAPVLSLLSVRDGFIASQGDGSCFIVQQDLDYVTELTGADCDPVYKVATWEKQIYTCCRDGLVRRYQLSDL
For B4, the binding [8] was “binds”.
